According to patent US9901592B2 (priority 2008, dated 2018):
Marks after values point to notes of the source that are not given here.

System: S. pneumoniae
Assay: MBC determination (CLSI), MBC/MIC ratio

CC[C@H]1OC(=O)[C@H](C)[C@@H](O[C@H]2C[C@@](C)(OC)[C@@H](O)[C@H](C)O2)[C@H](C)[C@@H](O[C@@H]2O[C@H](C)C[C@H](N(C)C)[C@H]2O)[C@](C)(OC)C[C@@H](C)C(=O)[C@H](C)[C@@H](O)[C@]1(C)O [CLR, clarithromycin]
No. of strains with MBC/MIC value of: 1: 2 | No. of strains with MBC/MIC value of: 2: 3 | No. of strains with MBC/MIC value of: 4: 1 | No. of strains with MBC/MIC value of: 8: 0 | No. of strains with MBC/MIC value of: 16: 0

CC[C@H]1OC(=O)[C@H](C)C(=O)[C@H](C)[C@@H](O[C@@H]2O[C@H](C)C[C@H](N(C)C)[C@H]2O)[C@](C)(OC)C[C@@H](C)C(=O)[C@H](C)[C@H]2N(CCCCn3cnc(-c4cccnc4)c3)C(=O)O[C@]12C [TEL, telithromycin]
No. of strains with MBC/MIC value of: 1: 2 | No. of strains with MBC/MIC value of: 2: 6^a | No. of strains with MBC/MIC value of: 4: 0 | No. of strains with MBC/MIC value of: 8: 0 | No. of strains with MBC/MIC value of: 16: 0 | No. of strains with MBC/MIC value of: ≧32: 2
